Assay results taken from the supplement of paper PMC10126150.
Values marked as one replicate rest on one cluster of the flow cell; about a third of the high ones do not repeat.
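Also: ATP exposure 15 min at 22 °C before imaging.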

Each sequence was assayed on ATP (assay: switch fluorescence ratio, 500 uM ATP over buffer (Cy3 cluster intensity, sum of 5 cycles each) (fold (ratio)); higher = stronger signal-on switching upon ATP binding; sequences stand for … in TCGTCGGCAGCGTCAGATGTGTATAAGAGACAGTTTTTTTTTTTTTTTTTTTTTTTTT…TC). Conditions: aptamer strand: ATP DNA aptamer (quencher-CACCTGGGGGAGTATTGCGGAGGAAGG + anchor), 100 nM annealed; ATP concentration: 500 uM; one replicate.
How it was run: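 Five buffer/ATP imaging cycles were run on Cy3-labelled switching-strand clusters on a modified Illumina MiSeq flow-cell, with NaOH stripping and re-annealing between cycles. In each cycle, clusters annealed to 100 nM quencher-labelled ATP aptamer were imaged in selection buffer, then after 15 min with 500 uM ATP at 22 °C. Per cluster, the fluorescence ratio is summed target-cycle over summed buffer-cycle Cy3 intensity, averaged per switch-domain sequence. Only clusters within 100-1000 RFU were kept.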
For GTGGTCATC, the switch fluorescence ratio was 1.03.
Work on CCAAATGAAG yielded a switch fluorescence ratio of 0.986.
TTATCTATAA gave a switch fluorescence ratio of 1.02.
AGATATTGCT gave a switch fluorescence ratio of 0.997.
CGCCCTAGGC was tested, and the switch fluorescence ratio was 1.03.
In the case of TACGCCGGCA, the switch fluorescence ratio is reported as 1.04.
TCACTCTCCC was tested, and the switch fluorescence ratio was 1.1.
For CCGATTTTGA, the switch fluorescence ratio was 0.994.
Work on CCAGGCAGT yielded a switch fluorescence ratio of 1.13.
With GAGGTGTTAA the switch fluorescence ratio was 0.988.
GGTTTGTTGC showed a switch fluorescence ratio of 0.985.
For ACACCATGGA, the switch fluorescence ratio was 1.03.
For AAGGAAATCG, the switch fluorescence ratio was 0.981.
Work on AACTTGTGCC yielded a switch fluorescence ratio of 0.99.
Work on ACGCGATGA yielded a switch fluorescence ratio of 0.984.
In the case of CTGTCACTTC, the switch fluorescence ratio is reported as 1.01.
Work on CCGTTCGAGG yielded a switch fluorescence ratio of 0.998.
Sequence TTTAGTCTTT has a switch fluorescence ratio of 0.992.
GCACCCTAGA gave a switch fluorescence ratio of 0.999.
With AGTTCTAATC the switch fluorescence ratio was 1.02.
TCAACAGCGA was tested, and the switch fluorescence ratio was 1.04.
For CTATACACAC, the switch fluorescence ratio was 1.41.
Work on CAGTAAGGTT yielded a switch fluorescence ratio of 0.969.
With TTAGGCGCGA the switch fluorescence ratio was 1.01.
In the case of TATCAGAATT, the switch fluorescence ratio is reported as 1.02.
TTAATGCAAG showed a switch fluorescence ratio of 1.02.
Sequence GTTCTCCTCG has a switch fluorescence ratio of 1.08.
Sequence ATCAGGTGTT has a switch fluorescence ratio of 2.64.
CAAATCGGAT gave a switch fluorescence ratio of 0.962.
ACGTATCAGC showed a switch fluorescence ratio of 1.11.
GGTGATCAGG was tested, and the switch fluorescence ratio was 0.959.
AGCTCCTTGA was tested, and the switch fluorescence ratio was 0.987.
TGCGTTATTC gave a switch fluorescence ratio of 0.965.
Sequence CGGTAGCGTA has a switch fluorescence ratio of 0.957.
CTCTGGTTGG gave a switch fluorescence ratio of 1.03.
With GGTAAATAGT the switch fluorescence ratio was 0.985.
Work on GCAGTTCTAT yielded a switch fluorescence ratio of 0.988.
ACTTGTCAAT showed a switch fluorescence ratio of 1.06.
With TAGTATGTTA the switch fluorescence ratio was 0.99.
With TTGTAGGATT the switch fluorescence ratio was 1.04.
With GCCATAGGGT the switch fluorescence ratio was 1.03.
For TCGCACGCGC, the switch fluorescence ratio was 1.1.
For TATAGCGTCC, the switch fluorescence ratio was 1.02.
CAGAATTTTC showed a switch fluorescence ratio of 0.968.
With CGTTCTGGGT the switch fluorescence ratio was 0.944.
Work on CCATTTTCGG yielded a switch fluorescence ratio of 1.
GAGAGAGTAA gave a switch fluorescence ratio of 1.01.
GAGAGTTGAC gave a switch fluorescence ratio of 0.927.
With TGCTAGTCCC the switch fluorescence ratio was 1.08.
With AAACCTACGA the switch fluorescence ratio was 1.46.
In the case of AGGCTCCTAA, the switch fluorescence ratio is reported as 0.98.
For CAAGAGGAA, the switch fluorescence ratio was 0.979.
With TACATTTAGA the switch fluorescence ratio was 1.03.
CACCCGATGA gave a switch fluorescence ratio of 1.02.
Work on TTGTTTCAT yielded a switch fluorescence ratio of 1.02.
In the case of TCTCAGTTAG, the switch fluorescence ratio is reported as 0.992.
For TCGCGTAAAT, the switch fluorescence ratio was 0.973.
With ACGACGTACC the switch fluorescence ratio was 1.95.
Work on ACGTCTTCTA yielded a switch fluorescence ratio of 1.05.
Sequence ACCCTTTCCG has a switch fluorescence ratio of 1.4.
With GAAATGTGAT the switch fluorescence ratio was 0.992.
GGAGGGCCTT showed a switch fluorescence ratio of 1.
TGGGTCCACA showed a switch fluorescence ratio of 0.979.
For GCCGTGTTCA, the switch fluorescence ratio was 1.03.
CGGCAACGTA gave a switch fluorescence ratio of 0.992.
Work on TTCCTTTGTC yielded a switch fluorescence ratio of 1.09.
For CTGTCCCTGG, the switch fluorescence ratio was 1.28.
Sequence GGTGTAAGGA has a switch fluorescence ratio of 0.943.
Sequence TCGGAGTAGT has a switch fluorescence ratio of 1.22.
Work on GGCGTTGTGG yielded a switch fluorescence ratio of 1.03.
GGGTCTGAAA was tested, and the switch fluorescence ratio was 1.05.
In the case of CGATCGATCA, the switch fluorescence ratio is reported as 1.01.
Sequence GAGTCTGAGG has a switch fluorescence ratio of 0.997.
For CGAAATAGGG, the switch fluorescence ratio was 1.01.
GTCGTGTCGG was tested, and the switch fluorescence ratio was 1.02.
Work on CCCTATTAGT yielded a switch fluorescence ratio of 1.01.
ATTGAGGCCG was tested, and the switch fluorescence ratio was 1.15.
CTAATACATG gave a switch fluorescence ratio of 1.
GCCTGCAATC gave a switch fluorescence ratio of 4.43.
CTCTCGCAG was tested, and the switch fluorescence ratio was 2.16.
GAGAGGTAGG was tested, and the switch fluorescence ratio was 1.02.
In the case of ACCAATAGGT, the switch fluorescence ratio is reported as 1.03.
CCCTTAGATT showed a switch fluorescence ratio of 0.973.
TCGGTTGGAT was tested, and the switch fluorescence ratio was 0.966.
Sequence TTTGGATCTC has a switch fluorescence ratio of 0.977.
With GTGTGAAACT the switch fluorescence ratio was 1.05.
In the case of ACTAAATGGT, the switch fluorescence ratio is reported as 1.02.
TAAGGCTACG was tested, and the switch fluorescence ratio was 1.01.
Sequence GAGGGTGCTT has a switch fluorescence ratio of 0.962.
Sequence TTAATCCGAG has a switch fluorescence ratio of 1.07.
Sequence TTTTTGAG has a switch fluorescence ratio of 1.05.
ACATGTGCAT gave a switch fluorescence ratio of 0.99.
AGCGGTCGG was tested, and the switch fluorescence ratio was 0.993.
Sequence ATTTAAACAT has a switch fluorescence ratio of 1.09.
ATCGCAGATG gave a switch fluorescence ratio of 0.996.
AAAACGTTGA was tested, and the switch fluorescence ratio was 1.02.
Work on TAAGCGGTTT yielded a switch fluorescence ratio of 1.02.
With AAACTCTCTT the switch fluorescence ratio was 1.02.
AGCATATCG gave a switch fluorescence ratio of 1.03.
In the case of GCCGCATAGA, the switch fluorescence ratio is reported as 2.08.
